Values marked as one replicate rest on one cluster of the flow cell; about a third of the high ones do not repeat.
tested on: ATP; assay: switch fluorescence ratio, 500 uM ATP over buffer (Cy3 cluster intensity, sum of 5 cycles each) (fold (ratio)); higher = stronger signal-on switching upon ATP binding; sequences stand for … in TCGTCGGCAGCGTCAGATGTGTATAAGAGACAGTTTTTTTTTTTTTTTTTTTTTTTTT…TC; settings: aptamer strand: ATP DNA aptamer (quencher-CACCTGGGGGAGTATTGCGGAGGAAGG + anchor), 100 nM annealed; ATP concentration: 500 uM; one replicate
Outline: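 The fluorescence ratio divides summed target-cycle Cy3 intensity by summed buffer-cycle Cy3 intensity for each cluster and is averaged per switch-domain sequence. Cy3-labelled switching-strand clusters on a modified Illumina MiSeq flow-cell were annealed to 100 nM quencher-labelled ATP aptamer, then imaged in selection buffer and again after 15 min with 500 uM ATP at 22 °C. Five such cycles were run, with NaOH stripping and re-annealing between them, and clusters outside 100-1000 RFU were excluded.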
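Also: ATP exposure 15 min at 22 °C before imaging.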

Sequence	switch fluorescence ratio
GGGGCACCCT	0.982
GGGGCATCCA	0.998
GGGGCATCGC	0.935
GGGGCCACAT	1
GGGGCCCTTC	0.992
GGGGCCGTGT	0.931
GGGGCGAACT	1.01
GGGGCGATAT	1.14
GGGGCGATCT	1.01
GGGGCGCTAT	1.1
GGGGCGTTGC	1.04
GGGGCTCGTT	0.976
GGGGCTCTTT	1.02
GGGGGAATCG	1.04
GGGGGACCA	1
GGGGGACGCG	0.968
GGGGGCGCCT	0.99
GGGGGCTCAT	0.975
GGGGGCTGTG	1.12
GGGGGGCACA	0.997
GGGGGGCCAC	1
GGGGGTATC	1.07
GGGGGTGAGA	0.995
GGGGGTGCGT	0.938
GGGGTACTTA	0.998

Sequence	switch fluorescence ratio
GGGGTATGCG	1.06
GGGGTCACGT	0.976
GGGGTCCTAC	0.971
GGGGTCTGAC	1.01
GGGGTCTTCG	1.02
GGGGTGAAAG	0.982
GGGGTGCTCG	1
GGGGTGCTGG	0.982
GGGGTGGAG	1.01
GGGGTGGGCC	0.999
GGGGTGGTGC	1.03
GGGGTTGTT	0.992
GGGTAAACCG	1.04
GGGTAATTGC	1
GGGTACCTAT	1.01
GGGTAGAGAG	0.974
GGGTAGGAGT	1
GGGTAGGGA	0.962
GGGTAGGGAG	0.944
GGGTCAAACA	1.02
GGGTCAAGGT	0.972
GGGTCAATTT	1.02
GGGTCAGGCG	1.03
GGGTCATTAT	1.01
GGGTCCATTA	1.01

Sequence	switch fluorescence ratio
GGGTCGTGCA	0.991
GGGTCTGCGG	1.01
GGGTCTGGAA	1.02
GGGTCTTACT	1.05
GGGTGAAGTA	0.96
GGGTGATAGG	1.03
GGGTGCCCAG	0.987
GGGTGCTAGC	1.05
GGGTGCTTTA	0.996
GGGTGCTTTT	0.982
GGGTGGAACG	1.01
GGGTGGTCAT	0.972
GGGTGTAAAT	0.948
GGGTGTT	1.04
GGGTGTTGCG	0.981
GGGTTCACAG	0.96
GGGTTCAGCC	0.994
GGGTTCAGCG	0.936
GGGTTCGGTT	0.93
GGGTTCTTCT	1.06
GGGTTGTATA	1.01
GGGTTGTTCG	0.944
GGGTTTATTA	0.941
GGGTTTGATA	1.01
GGTAAAGGG	0.96

Sequence	switch fluorescence ratio
GGTAAATTCG	1.01
GGTACATATA	1
GGTACCTCTG	1.04
GGTACGGCCC	0.992
GGTACGGCTG	0.981
GGTACTGTGA	1.05
GGTAGAGGAG	1.03
GGTAGGCTGA	0.988
GGTAGTTGTC	0.994
GGTATCAGTG	0.899
GGTATCCTTT	0.967
GGTATGGACC	1.02
GGTATTAGT	0.989
GGTATTATTA	0.977
GGTCAAAGAT	1.02
GGTCAAGGAT	0.95
GGTCAATAGA	0.992
GGTCACAGCG	0.956
GGTCACTATG	1.01
GGTCAGCAAA	0.977
GGTCAGTGCC	0.98
GGTCAGTTTT	0.99
GGTCATGGTA	1
GGTCCAAA	1.01
GGTCCATAAT	1.03
